# In all, about 120,000 compounds went through this assay and about 5,300 (4.4%) were called active. The inconclusive results got no clear call from the source; some entries with a clear call stand among them for comparison. Calls come from the whole dose curve; as a rule, active = well fitted inhibition curve with a large enough effect; inconclusive = small, poorly fitted or top-dose-only effect; inactive = no such curve, though single readings can be large or run the other way. Potencies of inconclusive entries are doubtful fits and often do not repeat.
# Experiment: qHTS Primary assay for Inhibitors of Plasmodium falciparum Dd2 growth in vitro; note: nearly all actives have a fitted effect of over 65% in size;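 for activity, negative = inhibition: plate controls were DMSO vehicle for no effect and reference drug for full effect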
# Conditions: P. falciparum Dd2 growth, SYBR Green, 72 h; activity, negative = inhibition: at 28.9 µM (top of the series) unless noted; series mostly up to 28.9 µM
# In short: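 Readout: SYBR Green fluorescence, 485 nm excitation, 535 nm emission, after ~16 h lysis at 37C. Before that, Dd2-infected red cells (2.5% hematocrit) grew 72 h with compound, 29 uM top final concentration.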
# Potency is the fitted concentration of half-maximal effect; tags give direction and shape of the fitted curve.
Structure (SMILES),Potency,outcome,"activity, negative = inhibition"
CCN(CCNC(=O)C1CCCN(c2cnn(C)c(=O)c2)C1)c1cccc(C)c1 (configuration not stated),"inconclusive: 20 µM [inhibitor, single point]",–,–
O=C(NC1CC1)C1COC2(CCN(C(=O)c3cccc(Cl)c3)CC2)N1C(=O)c1ccc(F)cc1 (configuration not stated),–,inactive,–
CC1=C(C(=O)N(C)C)C(c2ccc(Cl)cc2)N2C(CC(=O)N3CCOCC3)=CSC2=N1 (configuration not stated),"inconclusive: 10 µM [inhibitor, single point]",–,–
Cc1ncc2c(n1)C[C@@H]1CC[C@H]2N1C(=O)Nc1ccc(C)c(C)c1,–,inactive,–
COc1ccc(CCNC(=O)C(=O)NCC(c2cccnc2)N2CCN(c3ccccc3)CC2)cc1 (configuration not stated),"inconclusive: 17.8 µM [inhibitor, single point]",–,–
CCC(C(=O)NCCc1ccc(Cl)cc1)n1ccc2cc(S(=O)(=O)N3CCCCC3)ccc21 (configuration not stated),"inconclusive: 12.6 µM [inhibitor, single point]",–,–
Cc1ccc(NC(=O)Cn2c(=O)ccc3cc(S(=O)(=O)N4CCCC4)ccc32)cc1N(C)C,"inconclusive: 20 µM [inhibitor, partial curve, poor fit]",–,–
O=C(c1ccc(Cl)cc1)c1cn(Cc2ccccc2)c2cc3c(cc2c1=O)OCCO3,active: 11.2 µM,–,–
CN(C)Cc1cc(CC2(NCc3ccccc3O)COC2)no1,–,–,inactive: -20.2% [at 44.1 µM]
Cc1cc(C(=O)Nc2cccc(C)c2C)c2c(C)nn(-c3cccc(F)c3)c2n1,–,–,inactive: 10.1%
CN1CC(=O)N(C2CCCNC2)Cc2c(NCCc3cccc(F)c3)ncnc21 (configuration not stated),–,–,inactive: 0.961%
Cc1noc(C)c1-c1cc2cc(C(C)C)oc2c(-c2c(C)noc2C)n1,–,–,inactive: -20.6% [at 44.1 µM]
Cc1ccc(C2Cn3nnc(-c4noc(COc5ccc(F)cc5)n4)c3CO2)cc1 (configuration not stated),–,–,inactive: -23.9%
CCOc1ccc(NC(=O)CN2C(=O)NC3(CCC(C)CC3)C2=O)cc1 (configuration not stated),"inconclusive: 17.8 µM [inhibitor, single point]",–,–
CCOc1ccc(NC(=O)CN(C)S(=O)(=O)c2ccc3[nH]c4c(c3c2)CCCC4)cc1,"inconclusive: 17.8 µM [inhibitor, partial curve, poor fit]",–,–
CCC1=C(C(=O)OC)C(c2cccc(F)c2)N2C(CC(=O)NCC3CCCO3)=CSC2=N1 (configuration not stated),"inconclusive: 1.78 µM [inhibitor, full curve, poor fit]",–,–
Nc1ccc2oc(Cc3ccc(Cl)cc3)nc2c1,"inconclusive: 17.8 µM [inhibitor, single point]",–,–
CC(C)c1noc(-c2cn(C3CCN(C(=O)c4ccc(F)cc4Cl)CC3)nn2)n1,"inconclusive: 3.98 µM [inhibitor, partial curve, poor fit]",–,–
COC(=O)C1=C(C)N=C2SC=C(CC(=O)NCc3ccco3)N2C1c1ccccc1OC (configuration not stated),–,inactive,–
COc1cccc2c1OCCCN(C(=O)c1ccc(C3CCCNC3)cc1)C2 (configuration not stated),–,inactive,–
Cc1cccc(C(=O)NC2CCN(c3cnn(C)c(=O)c3)CC2)c1,"inconclusive: 1.41 µM [inhibitor, partial curve]",–,–

Structure (SMILES),Potency,outcome,"activity, negative = inhibition"
CNc1nc(C(=O)N2CCC3(CC2)c2nc[nH]c2CCN3C)cs1,–,–,inactive: 19.7%
CCCC(=O)Nc1ccc2nc(SCc3ccc(C)cc3)sc2c1,active: 8.91 µM,–,–
COc1ccc(CN2Cc3[nH]nc(-c4ccccc4Oc4ccccc4)c3CC2=O)cc1,"inconclusive: 3.55 µM [inhibitor, full curve, poor fit]",–,–
COc1ccc(C(=O)N2CCc3nc(C(C)C)nc(-c4ccc(OC)cc4)c3CC2)cc1,"inconclusive: 1.41 µM [inhibitor, partial curve, poor fit]",–,–
O=C(NCc1ccco1)c1ccc2c(c1)N(Cc1ccccc1F)C(=O)c1ccccc1S2(=O)=O,"inconclusive: 12.6 µM [inhibitor, single point]",–,–
Cc1ccc(-c2cn3cccnc3n2)cc1NC(=O)Cc1ccccc1,"inconclusive: 0.0112 µM [inhibitor, full curve, poor fit]",–,–
COc1ccc(C(=O)N2CCN(C(=O)c3nnn4c3COC(c3ccc(Cl)cc3)C4)CC2)cc1 (configuration not stated),"inconclusive: 2 µM [inhibitor, single point]",–,–
Cc1cc(C)cc(NC(=O)c2ncn(-c3ccccc3)n2)c1,"inconclusive: 17.8 µM [inhibitor, partial curve, poor fit]",–,–
CCc1ccc(NC(=O)N(Cc2cn(CC)c3ccccc23)C2CCCCC2)cc1,"inconclusive: 1.58 µM [inhibitor, partial curve, poor fit]",–,–
Cc1ccc(-c2nnc3ccc(NCCc4ccccc4)nn23)nc1,"inconclusive: 11.2 µM [inhibitor, single point]",–,–
CCOc1ccccc1Nc1ncnc2c1c(-c1ccccc1)cn2-c1ccc(OC)cc1,"inconclusive: 20 µM [inhibitor, single point]",–,–
CCOCN(C(=O)Cn1c(CC(C)C)nc2ccccc21)c1c(C)cccc1CC,"inconclusive: 17.8 µM [inhibitor, single point]",–,–
CCC(=O)N(C1CCOCC1)C1CCN(Cc2ccc(OC)cc2OC)CC1,"inconclusive: 8.91 µM [inhibitor, partial curve, poor fit]",–,–
O=C(c1csc2nc(-c3cccc(C(F)(F)F)c3)cn12)N1CCN2CCCC2C1 (configuration not stated),–,inactive,–
CC(NC(=O)C1=Cc2ccccc2OC1)c1ccccc1 (configuration not stated),–,–,inactive: -4.79%
COc1cc2nc(SCC(=O)Nc3cccc(C)c3)n3nc(CCn4c(C)nc5ccccc54)nc3c2cc1OC,active: 2.24 µM,–,–
COc1ccc(CNC(=O)C[C@@H]2[C@H](O)CC[C@@H]3[C@]4(C)CO[C@@H](CNC(=O)C5CCCC5)O[C@@H]4CC[C@]32C)cc1,"inconclusive: 20 µM [inhibitor, single point]",–,–
COC(=O)CNC(=O)N1CCC2(CC1)CC(Cc1ccc(OC)cc1)CCO2 (configuration not stated),–,inactive,–
Cc1cccc(NC(=O)Cn2c(N3CCN(c4ccccc4)CC3)nc(C)cc2=O)c1,"inconclusive: 11.2 µM [inhibitor, single point]",–,–
COc1ccc(-c2nc(C(C)C)nc3c2CCN([S+](=O)([O-])c2cccc(C(F)(F)F)c2)CC3)cc1,active: 7.08 µM,–,–
O=C(C1CCCC1)N1CCC(Oc2cccc(F)c2)C1 (configuration not stated),"inconclusive: 12.6 µM [inhibitor, single point]",–,–
